In all, about 230,000 compounds went through this assay and about 3,600 (1.6%) were called active. The shares of active, inactive and inconclusive entries below differ from those in the screen. Calls come from the whole dose curve; as a rule, active = well fitted inhibition curve with a large enough effect (not every such curve was filed as active); inconclusive = small, poorly fitted or top-dose-only effect, or another doubt; inactive = no such curve, though single readings can be large or run the other way. Where the call is inconclusive, the potency comes from a doubtful curve fit.
The compounds below were run against Lysine-specific demethylase 4E (Homo sapiens) (UniProt B2RXH2) (assay: qHTS Assay for Inhibitors of Human Jumonji Domain Containing 2E (JMJD2E)). Settings: JMJD2E catalytic domain, FDH-coupled NADH fluorescence (FDH is formaldehyde dehydrogenase); series mostly up to 57.1 µM.
Chain of UniProt B2RXH2 (B2RXH2 whole entry, looked up, the tested form may be a part): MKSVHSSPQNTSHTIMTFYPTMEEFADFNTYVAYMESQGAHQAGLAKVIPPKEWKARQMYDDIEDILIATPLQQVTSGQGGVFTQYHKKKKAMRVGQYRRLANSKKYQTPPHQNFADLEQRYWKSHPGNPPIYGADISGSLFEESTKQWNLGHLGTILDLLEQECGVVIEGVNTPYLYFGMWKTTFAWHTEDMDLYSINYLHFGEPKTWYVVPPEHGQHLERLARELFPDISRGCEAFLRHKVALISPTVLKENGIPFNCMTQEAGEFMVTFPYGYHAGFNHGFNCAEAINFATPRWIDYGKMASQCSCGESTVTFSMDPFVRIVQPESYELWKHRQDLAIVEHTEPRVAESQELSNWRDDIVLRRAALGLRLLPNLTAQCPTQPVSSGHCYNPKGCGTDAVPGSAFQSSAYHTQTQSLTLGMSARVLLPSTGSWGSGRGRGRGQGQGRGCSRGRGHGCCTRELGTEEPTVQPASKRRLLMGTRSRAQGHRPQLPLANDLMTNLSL
Note: nearly all actives have a fitted effect of over 50% in size.
Potency is the fitted concentration of half-maximal effect; tags give direction and shape of the fitted curve.

Row | SMILES | Potency
1 | O=C(COC(=O)CCOc1ccccc1)Nc1ncc(Cl)cc1Cl | inconclusive: 31.6 µM [inhibitor, partial curve]
2 | O=C(c1cc(=O)[nH]c2ccccc12)N1CCc2ccccc2C1 | inconclusive: 39.8 µM [inhibitor, single point]
3 | CCCOc1ccc(C(=O)NCC(C)(C)N2CCOCC2)cc1 | inactive
4 | C=CCOc1c(Br)cc(/C=N/n2c(CC)n[nH]c2=S)cc1Br | inactive
5 | Cc1nnc(SCC(=O)c2c(N)n(Cc3ccccc3)c(=O)n(C)c2=O)n1C | inconclusive: 39.8 µM [inhibitor, single point]
6 | COc1ccccc1CNCC(=O)Nc1ccc(C(F)(F)F)cc1 | inactive
7 | COc1ccccc1-c1cc(-c2ccccc2)nc(SC(C(N)=O)c2ccccc2)c1C#N (stereo unspecified) | inactive
8 | CCN1C(=C(C#N)C#N)C=Cc2cc(C)ccc21 | inactive
9 | CCn1cc(C(=O)Nc2ccc(F)c(F)c2)cn1 | inactive
10 | CCN(C(=O)Cn1cnc2cc([N+](=O)[O-])ccc2c1=O)C1CCS(=O)(=O)C1 (stereo unspecified) | inconclusive: 5.62 µM [inhibitor, full curve, poor fit]
11 | CCOC(=O)c1nn(-c2cccc(OC)c2)c2nc(CC)c(C#N)c(=O)n12 | inconclusive: 39.8 µM [inhibitor, single point]
12 | COc1ccc(CN2CCC(C(=O)N3CCCC(C)C3)CC2)cc1OC (stereo unspecified) | inconclusive: 35.5 µM [inhibitor, single point]
13 | Cc1cc(C)c2ccc(C)[n+]([O-])c2c1O | inconclusive: 25.1 µM [inhibitor, partial curve]
14 | CC(C)(C)NC(=O)C(c1cccnc1)N(C(=O)c1ccc(Cl)nc1)C1CCCC1 (stereo unspecified) | inactive
15 | C=CCN=c1scc(C)n1/N=C/c1ccc(O)c(O)c1 | active: 15.8 µM
16 | S=C(Nc1ccc2nsnc2c1)N1CCCC1 | inconclusive: 3.16 µM [inhibitor, single point]
17 | CCS(=O)(=O)N1CCC(C(=O)N2CCc3ccccc3C2)CC1 | inactive
18 | Cc1ccc(C2C3=C(CC(C)(C)CC3=O)Nc3[nH]c(=S)[nH]c(=O)c32)cc1 (stereo unspecified) | inconclusive: 12.6 µM [inhibitor, partial curve]
19 | Cn1cnnc1SCC(=O)Nc1ccc2c(c1)CCC2 | inactive
20 | CCN(CC)c1ccc(/C=N/N2CCN(Cc3ccc(C)cc3)CC2)c(O)c1 | inactive
21 | O=[N+]([O-])c1ccc(COc2cccc(CNc3ccc(F)cc3)c2)cc1 | inactive
22 | N#Cc1c(C(F)(F)F)cc(-c2ccccc2)nc1SCC(=O)N1CCOCC1 | inconclusive: 35.5 µM [inhibitor, partial curve]
23 | Cc1ccc(C)n1-c1ccsc1C(=O)CC#N | inconclusive: 35.5 µM [inhibitor, single point]
24 | COc1ccc2cc(C(=O)C3CCCN(C(=O)c4cnccn4)C3)ccc2c1 (stereo unspecified) | inconclusive: 31.6 µM [inhibitor, partial curve]
25 | CC(C)(C)c1ccc(Oc2ccc(NC(=O)c3ccccc3C(=O)O)cn2)cc1 | inactive
26 | COc1cc(C(=O)O)nc(OC)n1 | inactive

Row | SMILES | Potency
27 | Fc1ccccc1OCC1CCCN(Cc2nc(CC3CC3)no2)C1 (stereo unspecified) | inactive
28 | Cc1ccc(NC(=O)CN2C(=O)S/C(=C\c3cc(C)n(-c4cccc(C(=O)O)c4)c3C)C2=O)cc1 | inconclusive: 28.2 µM [inhibitor, single point]
29 | CCOC(=O)c1cn2nc(Oc3ccccc3)ccc2n1 | inconclusive: 39.8 µM [inhibitor, single point]
30 | COc1ccc(C(F)(F)F)cc1N/C=C/c1nnnn1-c1ccc(C)cc1 | inconclusive: 31.6 µM [inhibitor, single point]
31 | CCOc1ccc(NC(=O)c2cc3cc4ccc(OC)cc4nc3o2)cc1 | inconclusive: 14.1 µM [inhibitor, single point]
32 | CC12CC3(C)CC(C)(C1)CC(C(=O)Nc1nn[nH]n1)(C2)C3 | inactive
33 | COc1ccc(CCNC(=O)CN2CCN(S(=O)(=O)c3ccc(Cl)cc3)CC2)cc1OC | inactive
34 | CCc1ccccc1NC(=O)CC1S/C(=N\c2nccs2)N(CC)C1=O (stereo unspecified) | inactive
35 | CCOC(=O)c1ccc(-c2ccc(C=O)o2)cc1 | inconclusive: 20 µM [inhibitor, partial curve]
36 | CCOC(=O)c1ccc(NC(=O)COc2ccc(CNCCO)cc2OCC)cc1 | inactive
37 | O=C(N/N=C/c1ccc([N+](=O)[O-])cc1)c1cc2ccccc2o1 | inactive
38 | Cc1ccc(-c2cc(C(=O)NCC3CCCO3)c3ccccc3n2)cc1C (stereo unspecified) | inconclusive: 25.1 µM [inhibitor, partial curve]
39 | CS(=O)(=O)N1CCN(c2ccccc2NC(=O)C(c2ccccc2)c2ccccc2)CC1 | inactive
40 | CC(C)CN1C2CCCC1CC(NC(=S)NCc1ccco1)C2 (stereo unspecified) | inconclusive: 39.8 µM [inhibitor, single point]
41 | O=C(Cn1nc(-c2ccccc2)c2ccccc2c1=O)Nc1ccccn1 | inconclusive: 22.4 µM [inhibitor, single point]
42 | Fc1cccc(Cc2noc(CN3CCCCC3c3ccccn3)n2)c1 (stereo unspecified) | inconclusive: 35.5 µM [inhibitor, partial curve]
43 | Cc1ccc2c(c1)N(C(=O)CSc1nncn1C)C(C)(C)c1ssc(=S)c1-2 | inactive
44 | CCN1C(=O)C(CC(=O)Nc2ccc(F)cc2)N(Cc2ccc3c(c2)OCO3)C1=S (stereo unspecified) | inconclusive: 22.4 µM [inhibitor, single point]
45 | O=C(c1ccc(Cn2cc(Cl)cn2)o1)N1CCN(Cc2ccc3c(c2)OCO3)CC1 | inactive
46 | C=CCc1cccc(OC)c1OCCOCCNCCO | inconclusive: 31.6 µM [inhibitor, single point]
47 | CSc1nnc(-c2ccco2)c(-c2ccco2)n1 | inconclusive: 17.8 µM [inhibitor, partial curve]
48 | CCOC(=O)c1[nH]c2ccc(OC)cc2c1NC(=O)CN1CCN(c2ccccn2)CC1 | inconclusive: 3.16 µM [inhibitor, partial curve]
49 | COC(=O)CN1C(=O)C2(C(C#N)=C(N)Oc3cc(C)oc(=O)c32)c2ccccc21 (stereo unspecified) | inactive
50 | CC1CCN(S(=O)(=O)c2ccc3[nH]cc(C(=O)NCCN4CCOCC4)c(=O)c3c2)CC1 | inconclusive: 35.5 µM [inhibitor, single point]
51 | CCOc1ccccc1NC(=O)CSc1nnnn1Cc1ccccc1 | inconclusive: 39.8 µM [inhibitor, single point]
52 | O=C(O)c1ccccc1C(=O)Nc1ccc(-n2ccc(C(F)(F)F)n2)cc1 | inactive

Row | SMILES | Potency
53 | Cc1nc2cc(Nc3nnc(-c4ccccc4)c4ccccc34)ccc2n1C | inactive
54 | Cc1csc2ncc(C(=O)NCCc3ccccc3)c(=O)n12 | inconclusive: 31.6 µM [inhibitor, partial curve]
55 | O=C(CSc1nc(O)cc(=O)[nH]1)N1CCCc2ccccc21 | inactive
56 | Nc1nnnn1CC(=O)N/N=C/c1ccc(-c2cccc(Cl)c2)o1 | inconclusive: 25.1 µM [inhibitor, partial curve]
57 | c1csc(-c2csc(-c3cccs3)n2)c1 | inconclusive: 28.2 µM [inhibitor, single point]
58 | CCCCOc1ccc(C(=O)Nn2c(-c3cccs3)nc3ccccc3c2=O)cc1 | inconclusive: 22.4 µM [inhibitor, partial curve]
59 | Cc1c(C(=O)N2CCCCC2)sc(NC(=O)C2CC2)c1C#N | inactive
60 | Cc1c(C(=O)NCc2ccc3c(c2)cc(C)n3C)cccc1[N+](=O)[O-] | inconclusive: 35.5 µM [inhibitor, single point]
61 | CCCCC[C@H](O)/C=C/[C@@H]1[C@H]2C/C(=C/CCCC(=O)O)C[C@H]2C[C@H]1O | inactive
62 | CC(/C=N/NC(=O)c1cc(-c2ccc(Cl)cc2)nc2ccccc12)=C\c1ccco1 | inconclusive: 20 µM [inhibitor, partial curve, poor fit]
63 | CC(=O)N1C(=O)C2(C(C#N)=C(N)Oc3cc(C)oc(=O)c32)c2ccccc21 (stereo unspecified) | inactive
64 | Cc1cc(C(F)(F)F)n(-c2nc(C(=O)NN)cs2)n1 | inactive
65 | CCCc1nnc(NC(=O)CCC(=O)N2CCN(c3nc(C)cc(C)n3)CC2)s1 | inconclusive: 25.1 µM [inhibitor, partial curve]
66 | CCN(CC)C(C)C#CCC(c1ccccc1)c1ccccc1 (stereo unspecified) | inactive
67 | CC1CCCN(C(=O)CN2CCN(C(=O)c3ccco3)CC2)C1 (stereo unspecified) | inactive
68 | O=C(CSc1nnc(-c2ccco2)o1)N1c2ccccc2CCc2ccccc21 | inactive
69 | CCCOc1ccc(C(=O)NNC(=S)NC(=O)c2cc(-c3ccc(Cl)cc3)nc3ccccc23)cc1 | inconclusive: 39.8 µM [inhibitor, single point]
70 | O=C1C(=O)N(CCN2CCOCC2)C(c2cccnc2)/C1=C(/O)c1ccccc1 (stereo unspecified) | inconclusive: 39.8 µM [inhibitor, single point]
71 | Cc1noc(C(=O)Nc2ccc3c(c2)OCO3)c1Cl | inactive
72 | C/C(=N\O)c1oc2ccc3c(C)cc(=O)oc3c2c1C | inconclusive: 25.1 µM [inhibitor, partial curve]
73 | Cc1cccc(-n2c(Cn3nc(C)c([N+](=O)[O-])c3C)n[nH]c2=S)c1 | inactive
74 | O=C(Nc1ccc2[nH]c(=O)[nH]c2c1)Nc1ccc(F)cc1F | inconclusive: 25.1 µM [inhibitor, single point]
75 | O=C(COc1ccc2c(c1)C(=O)CC1(CCCCC1)O2)NCc1ccccn1 | inconclusive: 28.2 µM [inhibitor, partial curve]
76 | O=C(NCc1ccco1)C1CCN(c2ccc(N3CCOCC3)nn2)CC1 | inconclusive: 31.6 µM [inhibitor, partial curve]

Source: PubChem BioAssay AID2147 (National Center for Advancing Translational Sciences (NCATS), 2009)
